Measurements from the supplement of paper PMC3656093.
± gives the standard deviation of the averaged measurements. The full ranking holds about 1,900 compounds; the median of “CD40L-induced NF-kB luciferase activity, plate-corrected, relative to DMSO (0) and IKK inhibitor VII (-100) controls” is about 0.032, and the lowest 2% start at about -26. Some of the results follow.

These molecules were tested on BL2-NFkB-Luc (assay: CD40L-induced NF-kB luciferase activity, plate-corrected, relative to DMSO (0) and IKK inhibitor VII (-100) controls (% normalized activity); higher = more NF-kB reporter activity (less inhibition)). Details: 9.4 µM; stimulus: tCD40L 64 ng/ml; 4.5 h.
Method: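 BL2 B cells with a stable NF-kB response-element luciferase reporter (BL2-NFkB-Luc), 384-well. Cells were pre-incubated with compound at 9.4 uM for 1 h at 37 C, then stimulated with 64 ng/ml trimerized CD40L for 4.5 h; luciferase was read with Steady-Glo. Signal was normalised per plate in Genedata (median DMSO neutral control = 0, median IKK inhibitor VII at 50 uM = -100) with Assay Median plate-pattern correction; duplicate plates.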

Structure (SMILES) | CD40L-induced NF-kB luciferase activity
CCc1cc2c(C)cc(=O)oc2cc1OC(=O)C1CCCN1C(=O)OC(C)(C)C (centres undefined) | 3.67 ± 4.8
CCCc1c(OCCCCc2nn[nH]n2)ccc(C(C)=O)c1O | 3.29 ± 4.4
C=CCc1cccc2cc(C(=O)Nc3ccc(CC(=O)O)cc3)c(=O)oc12 | -5.12 ± 7.4
CCc1cccc(OC2OC(CO)C(O)C(O)C2NC(C)=O)c1 (centres undefined) | 0.237 ± 1.4
Cc1ccc(CN2CCN(Cc3cn[nH]c3C3CCCCC3)CC2CCO)cc1 (centres undefined) | 2.58 ± 2.8
CCCC(=O)Nc1ncnc2c1ncn2[C@@H]1O[C@@H]2COP(=O)(O)O[C@H]2[C@H]1OC(=O)CCC | 0.597 ± 2.9
O=C(N1CCCCC1)C1(c2ccccc2)CCOCC1 | -1.25 ± 1
CCOc1ccc2nc(NC(=O)NC3CCCCC3)sc2c1 | 13.7 ± 0.33
Nc1nc(SCc2ccc([N+](=O)[O-])cc2)c2ncn(C3OC(CO)C(O)C3O)c2n1 (centres undefined) | 6.103 ± 0.039
CC(C)Cc1cc(C(=O)N2CCC(N3CCC(C(=O)N4CCCC4)CC3)CC2)n[nH]1 | -1.03 ± 0.32
C[C@H]1C[C@H]2[C@@H]3CCC4=CC(=O)C=C[C@]4(C)[C@@]3(Cl)[C@@H](O)C[C@]2(C)[C@@]1(O)C(=O)CO | -25.6 ± 2.2
COc1cccc2cc(-c3ccccc3)c(=O)oc12 | 55.9 ± 8.7
COc1ccc(-c2c3c(=O)n(C)c(=O)n(C)c3cn2C2CCCCC2)cc1 | 0.188 ± 0.9
Cn1cc(/C=C/C(=O)c2ccccc2)c2ccccc21 | 3.44 ± 3
CC(=O)[C@H]1CC[C@H]2[C@@H]3CCC4=CC(=O)CC[C@]4(C)[C@H]3[C@H](O)C[C@]12C | -10.6 ± 14
O=C(c1cc2cc(Br)ccc2o1)N1CCCC1 | 38.77 ± 0.2
Cc1ccc(P(=O)(CSC(=N)N)c2ccc(C)cc2)cc1 | -16.8 ± 1.5
CC1(C)CC(C(CC(=O)O)c2ccccc2)CCO1 (centres undefined) | 8.6 ± 1.1
CC(=NNC(=O)C1(C)CC1(Br)Br)c1ccc([N+](=O)[O-])cc1 (centres undefined) | 2.34 ± 3.3
CC(C)OC(=O)CC12CN3CN(C1)CC(CC(=O)OC(C)C)(C3)C2=O | 4.53 ± 5.1
CC(=O)N1CCn2c3c(c4cc(C)ccc42)CCCC31 (centres undefined) | 1.48 ± 4.6
COc1ccc2cc[nH]c2c1 | -2.12 ± 5.1
C[C@H](NC(=O)Nc1ccccc1F)C(=O)O | 3.4 ± 0.28

Structure (SMILES) | CD40L-induced NF-kB luciferase activity
CCc1cc(=O)oc2cc(OCc3nn[nH]n3)ccc12 | -0.362 ± 2.4
C[S+]([O-])c1ccccc1O (centres undefined) | -1.44 ± 1.8
CC(=O)Oc1cc(C(C)C)c(OCCN(C)C)cc1C | 0.175 ± 3.1
COC1=CC(=O)CC(C)C12Oc1c(Cl)c(OC)cc(OC)c1C2=O (centres undefined) | -12.1 ± 0.18
CS(=O)(=O)Nc1cccc(C(=O)CC2(O)C(=O)Nc3ccc(Br)cc32)c1 (centres undefined) | -1.48 ± 3.9
O=C(/C=C/c1c[nH]c2ccccc12)c1cccc2ccccc12 | 1 ± 1.2
O=C(N1CCCC1)C12CC3CC(C1)CC(C(=O)N1CCCC1)(C3)C2 | -3.85 ± 1.6
O=c1[nH]c(=O)n([C@H]2C[C@H](O)[C@@H](CO)O2)cc1F | 4.58 ± 7
NS(=O)(=O)c1cc2c(cc1Cl)NCNS2(=O)=O | 3.64 ± 7.5
CC(C)Cn1c(=S)[nH]c2cc(C(=O)O)ccc2c1=O | 1.33 ± 2.4
NC(N)=N/N=C/c1c(Cl)cccc1Cl | -3.93 ± 7.5
Cc1coc2cc3oc(=O)c(CCC(=O)O)c(C)c3cc12 | 8.04 ± 4.1
C[N+](C)(C)CCOP(=O)(O)OC[C@H](O)CO | -15.1 ± 19
CC(=O)[C@@]1(O)CC[C@H]2[C@@H]3CCC4=CC(=O)CC[C@]4(C)[C@H]3[C@@H](O)C[C@@]21C | -12.9 ± 3.2
CS(=O)(=O)Nc1ccc([N+](=O)[O-])cc1Oc1ccccc1 | -1.13 ± 4
COc1cc(C)nc(-n2nc(C)cc2OC)n1 | 3.15 ± 0.63
CCOc1ccc(CC2c3cc(OCC)c(OCC)cc3CCN2C(=O)CN2CCN(C)CC2)cc1OCC (centres undefined) | -6.59 ± 12
COC(=O)c1[nH]c2ccc(F)cc2c1NC(=O)C1=COCCO1 | 0.19 ± 3.9
O=C(NCCO)c1ccc2[nH]c3ccccc3c2c1 | -0.687 ± 0.91
COc1ccc(CN2CCCC(C(=O)c3ccc(Cl)cc3)C2)cc1Cn1cccn1 (centres undefined) | -6.8 ± 6.1
COc1ccc2c(c1OC)C(C1c3c(cc4c(c3OC)OCO4)CCN1C)OC2=O (centres undefined) | 3.37 ± 3.6
CC1(C)C(=O)OC(/C=C\c2ccccc2)C(C)(C)C1=O (centres undefined) | -6.16 ± 0.13
O=C(OCC1CCCN2CCCCC12)c1ccc2c(c1)OCO2 (centres undefined) | 3.01 ± 4.1

Structure (SMILES) | CD40L-induced NF-kB luciferase activity
COc1cc(C(=O)OCCCN(C)C)cc(OC)c1OC | -3.95 ± 3.6
CCc1cc(C(N)=S)ccn1 | 2.2 ± 2.8
Cc1ccc2c(c1)c(=O)c1c3n2CCN(C(=O)CCl)C3CC1 (centres undefined) | -2.91 ± 2.5
COc1ccccc1-c1ccc(/C=C2/C=C(CC(C)C)OC2=O)o1 | 3.27 ± 3.5
NC(=O)c1ncn([C@@H]2O[C@H](CO)[C@@H](O)[C@H]2O)c1O | 1.27 ± 4.8
COc1ccc2c3c([nH]c2c1)C1(NCC3)C(=O)Nc2ccccc21 (centres undefined) | 5.33 ± 6.5
COc1ccccc1/C=C/CN1CCN(Cc2ccc(F)cc2)C(CCO)C1 (centres undefined) | -2.69 ± 5.2
Cn1nc(-c2ccc(Cl)cc2)nc2c(=O)n(C)c(=O)nc1-2 | -95.22 ± 0.55
O=C(O)CCCN1C(=O)NC2NC(=O)NC21 (centres undefined) | -1.73 ± 3.4
CC1(C)CC(O)(CNCc2ccc3c(c2)OCO3)CCO1 (centres undefined) | -6.54 ± 2.5
CCOc1ccc(NC2OC(C)C(O)C(O)C2O)c([N+](=O)[O-])c1 (centres undefined) | 4.18 ± 5.1
Cc1ccc(/C(=C\CN2CCCC2)c2ccccn2)cc1 | -9.06 ± 13
O=C1OC(c2ccccc2)=C/C1=C/c1cccs1 | 30.9 ± 2.3
Cc1ccc(S(=O)(=O)NC(=O)Nc2cc(C)ccc2F)cc1 | -7.04 ± 0.65
O=C(c1ccccc1F)c1cc2c(cc1[N+](=O)[O-])OCCO2 | 4.21 ± 2.1
O=C1C(Cc2ccccc2)NC(=S)N1c1ccccc1 (centres undefined) | 0.565 ± 0.47
CNCCC=C1c2ccccc2CCc2ccccc21 | 3.86 ± 3.4
Cn1c2ccccc2c2cc(/C=C(\NC(=O)c3ccccc3)C(=O)O)ccc21 | 0.0587 ± 0.86
COc1ccc2[nH]c(CN3CCN(CC(C)C)C(CCO)C3)c(C)c2c1 (centres undefined) | -3.64 ± 2.3
CNC[C@H](O)c1cccc(O)c1 | -1.83 ± 3.4
COc1ccc(CCNC(=O)C(=O)Nc2ccc3c(c2)OCO3)cc1OC | 0.742 ± 2.8
CCOc1ccc2oc(-c3ccccc3)c(C(=O)O)c2c1 | 0.687 ± 3.3
COc1ccc(NC(=O)CC(c2ccccc2)c2ccco2)cc1 (centres undefined) | -4.98 ± 9.2

Structure (SMILES) | CD40L-induced NF-kB luciferase activity
COc1cc(OC)c2c(C)c(Cl)c(=O)oc2c1 | 19.8 ± 1.7
O=C(CC1SC(=O)NC1=O)Nc1ccc(Cl)cc1 (centres undefined) | 2.93 ± 5.1
COc1ccc(C(=O)Nc2ccccc2C(=O)NCCCn2ccnc2)cc1 | 3.18 ± 2.2
CC(C)CC(NC(=O)C(NC(=O)OC(C)(C)C)C(C)C)C(=O)NC(CCC(=O)OCc1ccccc1)C(N)=O (centres undefined) | 5.49 ± 5.4
COc1ccc(Br)cc1C(=O)Nc1ccc(C(=O)O)cc1 | -4.22 ± 1.9
COc1ccc(C2(CCN=Cc3ccc(N(C)C)cc3)CCOC(C)(C)C2)cc1 (centres undefined) | 3.22 ± 2.5
COc1ccc(-c2csc(-c3cccnc3)n2)cc1C | 54.3 ± 0.95
CCC(C)NCCOCCOc1ccc(Cl)c2ccccc12 (centres undefined) | -3.83 ± 0.8
CN=C(NC#N)NCCSCc1nc[nH]c1C | 3.09 ± 3.4
CCOC(=O)c1cnc2ccccc2c1NCCO | 0.446 ± 3.2
CCOC(=O)Nc1ccc2c(c1)N(C(=O)CCN1CCOCC1)c1ccccc1S2 | 0.116 ± 0.31
CC1(CC(=O)Nc2ccccc2)NC(=S)N(c2ccccc2)N1 (centres undefined) | 22.4 ± 3
O=C(O)CCn1c(=S)n(CCC(=O)O)c2ccccc21 | 4.48 ± 1.5
CC1=C(C)C(=O)C(CCCCC#CCCCC#CCO)=C(C)C1=O | -9.18 ± 1.8
C#C[C@]1(O)CC[C@H]2[C@@H]3CCc4cc(OC)ccc4[C@H]3CC[C@@]21C | 0.208 ± 3.1
O=C(c1ccc(F)cc1)[C@@H]1[C@@H](C(=O)c2ccccc2)[C@@]2(C(=O)Nc3ccccc32)[C@H]2c3ccccc3C=CN12 | 6.58 ± 1.4
O=C(O)/C=C/c1cccc(OCc2ccccc2)c1 | 1.54 ± 2.9
CCOCC(=O)Nc1ccccc1C(=O)N1CCOCC1 | -5 ± 1
COc1cc2c(cc1OC)-c1nnc(C)n1C(C)(C)C2 | -0.442 ± 6.8
O=C(CN1C(=O)c2ccccc2S1(=O)=O)Nc1ccccc1 | -6.73 ± 3.7
O=C(/C=C/c1ccco1)Nc1ccccc1C(=O)O | 1.64 ± 1.8
c1coc(-c2nnc3n2C2(CCCC2)Cc2ccccc2-3)c1 | 3.3 ± 1.4
O=C1CC(c2ccc(OCCCCCOc3ccc(C4CC(=O)NC4=O)cc3)cc2)C(=O)N1 (centres undefined) | 1.1 ± 0.16

Structure (SMILES) | CD40L-induced NF-kB luciferase activity
CC(C)CC(=O)NC(NC(=O)CC(C)C)c1cccc([N+](=O)[O-])c1 | -3.39 ± 3
O=C(O)Cc1ccc(O)c(F)c1 | -1.51 ± 2.2
O=C(c1ccc([N+](=O)[O-])cc1)N1CCSC1c1ccccc1Cl (centres undefined) | 4.04 ± 5
COc1ccc2nc(C)cc(Nc3ccccc3O)c2c1 | -3.8 ± 2.1
CN(C)CCCN1c2ccccc2CCc2ccc(Cl)cc21 | 2.09 ± 1.3
O=C(/C=C/c1ccccc1)NC(=O)c1ccccc1O | 54 ± 2.5
Clc1ccccc1CN1CCc2sccc2C1 | 1.03 ± 1.4
C=CCNc1nc2c(c(=O)n(C)c(=O)n2C)n1CC(=C)C | -20.4 ± 24
NS(=O)(=O)c1ccc(CCNC(=O)C2CCCN2C(=O)OCc2ccccc2)cc1 (centres undefined) | 2.68 ± 0.16
COc1cc2c(cc1O)CC[C@@H]1[C@@H]2CC[C@]2(C)[C@@H](O)CC[C@@H]12 | 1.02 ± 5.1
COC(=O)C1=C(C)NC(C)=C(C(=O)OC)C1c1ccccc1[N+](=O)[O-] | -3.05 ± 3.8
CC1(C(=O)O)CCC(C(=O)NC2CCCCCC2)C1(C)C (centres undefined) | 2.33 ± 3.5
CC(=O)c1cccc(NC(=O)N[C@@H](CC(C)C)C(=O)O)c1 | -0.327 ± 2.4
O=C(O)Cc1ccccc1Nc1c(Cl)cccc1Cl | -0.787 ± 3.6
CCNC(=S)N1CCN(CCN2C(=O)c3cccc4cccc(c34)C2=O)CC1 | 63.6 ± 2.8
O=C1OCCN1N=Cc1ccc([N+](=O)[O-])o1 | -0.974 ± 2.2
O=c1[nH]cc(F)c(=O)[nH]1 | 5.81 ± 5
CCc1cc2c3c(c(=O)oc2cc1O)CCCC3 | 2.85 ± 4.5
CCCCC[C@H](O)/C=C/[C@@H]1[C@@H](C/C=C\CCCC(=O)O)[C@H]2CO[C@@H]1C2 | 0.508 ± 0.28
COc1ccc(O)c(C(=O)/C=C/c2cc3ccccc3o2)c1 | 83.3 ± 3.2
Nc1ncnc2c1ncn2C1OC(CO)C(O)C1O (centres undefined) | 7.59 ± 2.4
CS(=O)(=O)Oc1ccc2c(c1)O/C(=C\C=C\c1ccccc1)C2=O | -0.6 ± 2.1
